# According to PubChem BioAssay AID485294 (National Center for Advancing Translational Sciences (NCATS), 2010):
# Out of some 370,000 compounds screened, about 150 (0.041%) were called active. The shares of active, inactive and inconclusive entries below differ from those in the screen. Calls follow the shape of the dose curve; as a rule, active = well fitted inhibition curve with a large enough effect; inconclusive = small, poorly fitted or top-dose-only effect; inactive = flat fitted curve, though single readings scatter. No potency is given beside an inconclusive call; the fits are too rough.
# Molecular target: Beta-lactamase (Escherichia coli (strain K12)) (UniProt P00811)
# Assay: qHTS Inhibitors of AmpC Beta-Lactamase (assay with detergent); also: nearly all actives have a fitted effect of over 25% in size
# Conditions: AmpC hydrolysis of nitrocefin, absorbance 480 nm, 0.01% Triton; series mostly up to 114 µM
# Procedure, shortened: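 20 mM phosphate pH 7.0 + 0.01% (detergent screen) or 0.0001% Triton X-100; 5.3 nM AmpC reagent; cpd preinc 15 min RT; nitrocefin (800 uM stock) to start; A480 q20 s × 4 min; Activity was normalised to no-enzyme and no-compound control wells.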
# Potency is read from the fitted curve at half-maximal effect; tags tell the direction and shape of the fitted curve.
# Chain of UniProt P00811 (P00811 whole entry, looked up): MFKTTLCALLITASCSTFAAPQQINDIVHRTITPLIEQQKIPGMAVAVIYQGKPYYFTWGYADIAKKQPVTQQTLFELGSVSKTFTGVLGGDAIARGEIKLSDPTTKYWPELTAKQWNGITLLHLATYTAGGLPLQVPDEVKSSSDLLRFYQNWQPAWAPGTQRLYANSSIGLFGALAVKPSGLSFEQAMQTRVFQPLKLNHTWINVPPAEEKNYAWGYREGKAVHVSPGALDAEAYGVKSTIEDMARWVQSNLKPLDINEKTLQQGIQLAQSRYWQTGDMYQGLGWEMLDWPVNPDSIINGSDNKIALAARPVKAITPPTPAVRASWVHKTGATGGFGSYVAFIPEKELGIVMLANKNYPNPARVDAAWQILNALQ
row,SMILES,Potency
1,Cc1ccc(OCc2n[nH]c(=S)n2-c2ccc(Cl)cc2)cc1,"inconclusive [inhibitor, full curve, poor fit]"
2,CCOc1ccc(NC(=O)CS(=O)(=O)c2cn(C)c3ccccc23)cc1,"inconclusive [inhibitor, full curve, poor fit]"
3,O=C(NCCC1=CCCCC1)C1CCCN(S(=O)(=O)c2cccc3cccnc23)C1 (configuration not stated),"inconclusive [inhibitor, full curve, poor fit]"
4,CCCN(C(=O)c1ccco1)c1nnc(-c2ccncc2)s1,inactive
5,CC1(C)CC(=O)C2=C(C1)N1C(=C(C#N)C2c2ccc(Cl)cc2)N=C(N)c2ccccc21 (configuration not stated),"inconclusive [inhibitor, full curve, poor fit]"
6,C(=N\N(c1ccccc1)c1ccccc1)/c1ccc2c(c1)OCO2,inactive
7,Cn1c(SCc2cccc(Cl)c2)nc(C(F)(F)F)cc1=O,"inconclusive [inhibitor, full curve, poor fit]"
8,CCCOc1ccc([C@@H]2C3CN(C(=O)OCC)CC=C3C(C#N)=C(N)C2(C#N)C#N)cc1OC (some centres not stated),inactive
9,CC(=O)N1CCC(C(=O)Nc2ccc3c(c2)CCC3)CC1,inactive
10,COc1ccc(N(CC(=O)NCCSc2ccccn2)S(C)(=O)=O)cc1Cl,"inconclusive [inhibitor, full curve]"
11,O=C(Cc1cccs1)Nc1ccc(S(=O)(=O)Nc2ncccn2)cc1,"inconclusive [inhibitor, partial curve]"
12,CCOC(=O)C1CCN(Cc2cn3c(-c4ccc(OC)cc4)nnc3s2)CC1,inactive
13,COc1cccc(NS(=O)(=O)c2ccc3[nH]cc(C(=O)NC(C)c4ccccc4)c(=O)c3c2)c1 (configuration not stated),inactive
14,O=C(c1ccc(CSc2nc3ccncc3[nH]2)cc1)N1CCN(c2cccc(Cl)c2)CC1,"inconclusive [inhibitor, partial curve, poor fit]"
15,NC(=O)C1CCCN(S(=O)(=O)c2ccccc2)C1 (configuration not stated),"inconclusive [inhibitor, full curve, poor fit]"
16,CCc1ccccc1NC(=O)c1cnc2n(c1=O)CCS2,"inconclusive [inhibitor, full curve, poor fit]"
17,O=C(Nc1ccccc1)Nc1ccc(Oc2cccnc2)nc1,"inconclusive [inhibitor, full curve, poor fit]"
18,Cc1ccc(-c2nnn(CC(=O)Nc3ccc4nn(-c5ccccc5)nc4c3)n2)o1,"inconclusive [inhibitor, partial curve, poor fit]"
19,COc1ccc(NC(=O)C(=O)NCC2CCCN2S(=O)(=O)c2cc(C)ccc2C)cc1 (configuration not stated),"inconclusive [inhibitor, full curve]"
20,Cc1ccc(-n2ncc3c(NCc4cccnc4)ncnc32)c(C)c1,"inconclusive [inhibitor, full curve]"
21,Cc1ccc(CNC(=O)c2ccc3c(c2)c(C)c(C)n3Cc2ccc(Cl)cc2)o1,inactive
22,Cc1ccc(S(=O)(=O)NCCc2nc3ccccc3[nH]2)cc1,inactive
23,CC(=O)N1CN2CN(C1)CN(C(C)=O)C2,"inconclusive [inhibitor, full curve, poor fit]"

row,SMILES,Potency
1,C=CCn1c(O)c(C(C)=Nc2ccc(N(C)C)cc2)c(=O)[nH]c1=O,"inconclusive [inhibitor, full curve, poor fit]"
2,COc1cc(-c2cc(OC)c3c(C)oc(C)c3c(=O)c2)ccc1OC(=O)c1cccc(C)c1,inactive
3,CCCC1(c2ccccc2)NC(=O)N(CC(=O)Nc2ccccc2C(F)(F)F)C1=O (configuration not stated),"inconclusive [inhibitor, full curve, poor fit]"
4,O=C(Nc1nccs1)c1cccc(S(=O)(=O)N2CCCCC2)c1,inactive
5,COC(=O)C(=Cc1ccc(-c2ccsc2C(=O)OC)o1)C(=O)OC,inactive
6,CC(=O)C(Cl)C(=O)Nc1ccccc1 (configuration not stated),inactive
7,NC(=O)c1ccsc1NC(=O)C1CCN(S(=O)(=O)c2cccs2)CC1,"inconclusive [inhibitor, full curve]"
8,CC(OC(=O)c1ccccc1NCc1ccco1)C(=O)Nc1ncc(Cl)cc1Cl (configuration not stated),"inconclusive [inhibitor, full curve, poor fit]"
9,COc1ccc(NC(=O)C(NC(=O)CC2NC(=O)NC2=O)c2ccccc2)cc1 (configuration not stated),"inconclusive [inhibitor, full curve, poor fit]"
10,CC1CCc2c(sc3ncnc(N4CCOCC4)c23)C1 (configuration not stated),inactive
11,O=C(NCc1ccccc1CN1CCCC1)c1cccc(S(=O)(=O)N2CCOCC2)c1,"inconclusive [inhibitor, partial curve, poor fit]"
12,Cc1ccc(C(=O)Nc2ccc3c(c2)OCO3)cc1,"inconclusive [inhibitor, single point]"
13,C#CCN1CC(C)/C(=N/O)CC1C (configuration not stated),"inconclusive [inhibitor, full curve, poor fit]"
14,COC(=O)Nc1ccc(OCC(=O)N2CCOCC2)cc1,"inconclusive [inhibitor, full curve, poor fit]"
15,CC(C)(C)c1ccc(/C=C/C(=O)NC2=NCCS2)cc1,inactive
16,O=C(NCCSCc1ccccc1)c1ccccc1,"inconclusive [inhibitor, single point]"
17,CC(=O)Nc1cccc(NC(=O)CSc2nnnn2Cc2ccccc2)c1,inactive
18,Cc1ccc(NC(=O)C2CCCN(S(=O)(=O)c3cnc[nH]3)C2)cc1F (configuration not stated),"inconclusive [inhibitor, full curve, poor fit]"
19,CN(CCc1cn[nH]c1)C(=O)CC1C(=O)NCCN1Cc1ccccc1C(F)(F)F (configuration not stated),inactive
20,Cc1ccc(S(=O)(=O)NCC(=O)OCC(=O)NCc2ccc3c(c2)OCO3)cc1,"inconclusive [inhibitor, full curve, poor fit]"
21,Cc1ccc(N2CC(C(=O)Nc3c(C)n(C)n(-c4ccccc4)c3=O)CC2=O)cc1 (configuration not stated),"inconclusive [inhibitor, partial curve, poor fit]"
22,Cn1ccnc1SCC(=O)Nc1cccc(C(F)(F)F)c1,"inconclusive [inhibitor, full curve, poor fit]"
23,COC(=O)Nc1sc2c(c1C(=O)N1CCOCC1)CCC(C)C2 (configuration not stated),"inconclusive [inhibitor, single point]"

row,SMILES,Potency
1,COc1cccc(/C=N/NC(=O)c2c(C)nc3ccc(Br)cn23)c1O,inactive
2,Cc1ccc([N+](=O)[O-])cc1S(=O)(=O)NCCc1c(C)[nH]c2ccccc12,"inconclusive [inhibitor, full curve]"
3,Cc1ccc(NC(=O)CSc2ncc(S(=O)(=O)c3ccccc3)c(=O)[nH]2)cc1C,"inconclusive [inhibitor, full curve]"
4,Cc1nccc(-c2ccc3c(c2)OCO3)n1,"inconclusive [inhibitor, full curve]"
5,O=C1[C@H]2[C@@H](c3ccc(F)cc3)N3C(=O)N(c4ccc(Br)cc4)C(=O)[C@@]3(Cc3ccccc3)[C@H]2C(=O)N1C1CCCCC1,"inconclusive [inhibitor, full curve, poor fit]"
6,CN(C)C(CNC(=O)CSc1nc2sc3c(c2c(=O)n1C)CCC3)c1ccccc1 (configuration not stated),"inconclusive [inhibitor, full curve, poor fit]"
7,CCN(CC)c1ccc(NC(=S)NC(=O)c2ccco2)cc1,"inconclusive [inhibitor, single point]"
8,Cc1ccc(OCC(=O)OCc2c(C)noc2C)cc1C,"inconclusive [inhibitor, single point]"
9,O=C(CSc1nnc(NC(=O)c2ccc(S(=O)(=O)N3CCOCC3)cc2)s1)Nc1ccccc1C(F)(F)F,inactive
10,COc1ccc(/C=C/C(=O)NCc2cnn(C)c2C)cc1COc1ccc(Br)cc1,"inconclusive [inhibitor, full curve, poor fit]"
11,Cc1ccc(-c2nn3c(C)nnc3c3ccccc23)cc1S(=O)(=O)NCc1ccccc1,"inconclusive [inhibitor, full curve, poor fit]"
12,COCCNC(=O)C(c1ccccc1C)N(CCOC)C(=O)Cn1nnc2ccccc21 (configuration not stated),"inconclusive [inhibitor, partial curve, poor fit]"
13,O=C(CSc1nnnn1Cc1ccccc1)Nc1ccc2c(c1)OCCO2,"inconclusive [inhibitor, partial curve, poor fit]"
14,COC(=O)c1ccccc1NC(=O)C1CCN(c2ncnc3c2nc2n3CCCCC2)CC1,inactive
15,O=C(CN1CCc2ccccc21)NC(c1ccccc1)c1ccccc1,"inconclusive [inhibitor, full curve, poor fit]"
16,Cc1cc(C)c(S(=O)(=O)c2ccccc2)c(OC(=O)c2ccc(Cl)cc2Cl)n1,inactive
17,O=C(NCCc1cccc(Cl)c1)c1cccc([N+](=O)[O-])c1,"inconclusive [inhibitor, full curve, poor fit]"
18,O=C(O)C1CCCN1S(=O)(=O)c1ccc(Cl)c(Cl)c1 (configuration not stated),"inconclusive [inhibitor, partial curve]"
19,O=C(C1=C(O)C(=O)N(CCc2ccccc2)C1c1cccnc1)c1ccco1 (configuration not stated),inactive
20,COc1ccccc1C(=O)NCCC(=O)NC1CCCCC1C (configuration not stated),"inconclusive [inhibitor, full curve, poor fit]"
21,Cc1nc(CS(=O)(=O)c2ccc(Cl)cc2)cc(N2CCOCC2)n1,"inconclusive [inhibitor, single point]"
